# Experimental data as given in PubChem BioAssay AID743255 (National Center for Advancing Translational Sciences (NCATS), 2014).
# Among all 390,000 compounds or so, about 910 (0.23%) were called active. Another 5% or so got no clear call; they are omitted. Calls follow the shape of the dose curve; as a rule, active = well fitted inhibition curve with a large enough effect; inconclusive = small, poorly fitted or top-dose-only effect; inactive = no such curve, though single readings can be large or run the other way. The entries are a selection whose mix differs from that of the whole data set.
# Biological target: Ubiquitin carboxyl-terminal hydrolase 1 (Homo sapiens) (UniProt O94782)
# Sequence of UniProt O94782 (O94782 whole entry, looked up): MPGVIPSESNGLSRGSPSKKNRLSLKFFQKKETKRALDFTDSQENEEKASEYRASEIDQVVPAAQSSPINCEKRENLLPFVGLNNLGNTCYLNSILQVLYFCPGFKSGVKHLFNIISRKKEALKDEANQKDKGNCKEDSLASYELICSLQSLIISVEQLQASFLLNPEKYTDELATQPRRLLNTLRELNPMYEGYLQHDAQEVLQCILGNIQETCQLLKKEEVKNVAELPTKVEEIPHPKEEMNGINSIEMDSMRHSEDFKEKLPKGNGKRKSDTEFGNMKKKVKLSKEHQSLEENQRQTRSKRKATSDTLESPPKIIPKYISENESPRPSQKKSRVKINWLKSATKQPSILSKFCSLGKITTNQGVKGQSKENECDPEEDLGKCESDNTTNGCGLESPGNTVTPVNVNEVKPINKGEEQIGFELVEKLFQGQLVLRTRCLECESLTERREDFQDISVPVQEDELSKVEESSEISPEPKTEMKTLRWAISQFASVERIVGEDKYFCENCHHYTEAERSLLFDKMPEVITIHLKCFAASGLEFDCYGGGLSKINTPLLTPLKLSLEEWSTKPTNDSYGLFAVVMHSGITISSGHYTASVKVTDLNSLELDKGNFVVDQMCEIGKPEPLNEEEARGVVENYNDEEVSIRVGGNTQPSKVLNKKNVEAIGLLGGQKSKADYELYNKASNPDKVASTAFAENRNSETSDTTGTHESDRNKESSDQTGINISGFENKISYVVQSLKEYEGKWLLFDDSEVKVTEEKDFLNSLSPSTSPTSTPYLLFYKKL
# Assay: Inhibitors of USP1/UAF1: Primary Screen; also: nearly all actives have a fitted effect of over 60% in size
# Conditions: recombinant USP1/UAF1, Ub-Rhodamine cleavage fluorescence; activity change, negative = inhibition: at 57.1 µM (top of the series)
# How it was run: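 USP1/UAF1 complex at 1 nM was preincubated with compound for 15 min at room temperature, then Ub-Rho substrate (150nM final) was added. Fluorescence (480/540 nm) was read kinetically, 6 reads every 60 seconds.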
# % is scaled to controls: 0 for no effect and ±100 for the full control effect; potency is read from the fitted curve at half-maximal effect.
Structure (SMILES),"activity change, negative = inhibition",Potency
C[C@H](CO)N1C[C@H](C)[C@@H](CN(C)C(=O)NC2CCCCC2)OCc2cnnn2CCCC1=O,inactive: -15.1%,–
C=CCC[C@@H](Cc1ccc(F)cc1)C(=O)OC[C@H](Cc1c[nH]c2ccccc12)NC(=O)[C@H](CC=C)CC(=O)NCCO,inactive: -9.24%,–
COC(C[C@H]1O[C@@H]1[C@H](O)COCc1ccccc1)OC,inactive: -4.6%,–
COc1ccc(N=C/C=C2/C=C(c3ccccc3)OC(C)(C)O2)cc1,inactive: -19.7%,–
COc1cc(CN(C(=O)c2cc3ccccc3oc2=O)C2CCS(=O)(=O)C2)cc(OC)c1OC (configuration not stated),inactive: -25.4%,–
CC(C)OC(=O)N(C)C[C@@H]1OCc2cnnn2CCCC(=O)N([C@@H](C)CO)C[C@H]1C,inactive: -29%,–
C=CCOC(=O)C1=C[C@@H](c2csc3ccccc23)C[C@@H](OCc2ccc(CO)cc2)O1,inactive: -29%,–
C=CC[C@@H](CC(=O)N[C@@H](CO)Cc1ccccc1)C(=O)N[C@H](COC(=O)[C@@H](CC=C)Cc1ccc(F)cc1)C(C)(C)C,inactive: -1.93%,–
C/C(N)=C(/C#N)C(=O)CSc1nnc(Nc2c(C)cccc2C)s1,inactive: -13.4%,–
Cc1cc(C)c(NC(=O)C(C)c2cccc(C(=O)c3ccccc3)c2)c(C)c1 (configuration not stated),inactive: -11%,–
O=C(O)CCCNc1cc(N2CCN(C(=O)c3ccco3)CC2)c2noc3c2c1C(=O)c1ccccc1-3,–,active: 28.2 µM
CCOc1ccc2nc(/N=C/c3nc(-c4ccc(Br)cc4)oc3O)sc2c1,inactive: 138%,–
O=C1NC(=O)/C(=C/c2ccccc2OCc2ccccc2)S1,inactive: -12.2%,–
NC1=C(Cl)C(=O)c2ccc(S(N)(=O)=O)cc2C1=O,–,active: 1.26 µM
CCOc1cc(/C=C(\C#N)C(=O)Nc2cccc(C(=O)O)c2)ccc1OCc1ccc(Br)cc1,inactive: -32.9%,–
C[C@H](CO)N1C[C@H](C)[C@H](CN(C)C(=O)Nc2ccccc2F)OCc2cnnn2CCCC1=O,inactive: -19.4%,–
CC(C)OC(=O)N(C)C[C@@H]1OCc2cnnn2CCCC(=O)N([C@H](C)CO)C[C@@H]1C,inactive: -16%,–
O=C(NCc1ccccc1Cl)c1ccc2c(c1)NC(=O)C(CS(=O)(=O)Cc1ccc(F)cc1Cl)N2 (configuration not stated),inactive: 57.6%,–
CCN1C(=O)c2ccccc2S(=O)c2ccc(C(=O)NCc3ccc(OC)cc3)cc21 (configuration not stated),inactive: -20%,–
Cc1c(Cl)cccc1NC(=O)CC1Oc2ccccc2NC1=O (configuration not stated),inactive: -5.79%,–
O=C1C=C(Nc2ccccc2O)c2ccccc2C1=O,–,active: 17.8 µM

Structure (SMILES),"activity change, negative = inhibition",Potency
COC(=O)[C@@H]1C[C@H]1[C@@H](NS(=O)(=O)c1ccccc1)c1ccccc1,inactive: -19.2%,–
COc1ccc(C2CC(=O)c3cc(-c4nc(-c5ccc(Cl)cc5)c(C)s4)c(=O)[nH]c3C2)cc1 (configuration not stated),inactive: -29.1%,–
COc1ccc(NS(=O)(=O)c2cc([N+](=O)[O-])ccc2N/N=C\c2c(C)[nH]c3ccccc23)cc1,inactive: -16.2%,–
N#C/C(=C\c1ccccn1)c1nc2ccccc2s1,inactive: 424%,–
Cc1ccccc1-n1c(/C=C/c2c(C)n(C)c3ccccc23)nc2ccccc2c1=O,inactive: 88.3%,–
O=C(Nc1cccc(NC(=O)c2ccc(Br)o2)c1)c1ccccc1,inactive: -11.6%,–
COc1ccc([C@H]2C[C@@H](n3cc(-c4ccc(F)cc4)nn3)[C@H](O)CN2Cc2cccs2)cc1,inactive: -5.47%,–
Cn1cccc1/C=C1\CC(C(C)(C)C)C/C(=C\c2cccn2C)C1=O (configuration not stated),–,active: 11.2 µM
O=C1N[C@@H](Cc2ccccc2)COC(=O)[C@H](Cc2ccc(F)cc2)CC/C=C/C[C@@H]1CC(=O)N(CCO)Cc1ccccc1,inactive: -22.8%,–
O=C1NCCOC(=O)[C@H](Cc2ccc(F)cc2)C/C=C\C[C@H]1CC(=O)N(CCO)Cc1ccccc1,inactive: -25.8%,–
CCOC(=O)N(C)C[C@@H]1OCc2cnnn2CCCC(=O)N([C@@H](C)CO)C[C@@H]1C,inactive: -25.9%,–
O=C(NC1CC1)C1=C[C@@H](c2csc3ccccc23)C[C@@H](OCc2ccc(CO)cc2)O1,inactive: -5.05%,–
Cc1ccc(NC(=O)Cn2cc(C(=O)C3CC3)c3ccccc32)cc1,inactive: -10.2%,–
CCO[C@H]1OC(C(=O)Nc2ccccc2)=C[C@@H](C)[C@@H]1CCCO,inactive: -7.62%,–
Cc1cccc(N(C)S(=O)(=O)c2ccc(-c3cc(C)no3)s2)c1,inactive: 1.85%,–
C[C@]12C(=O)N(c3cccc(F)c3)C(=O)N1[C@@H]1c3ccccc3OC[C@@H]1[C@H]2c1ccccc1,inactive: -14.4%,–
O=C(CCSCc1ccc(Cl)cc1)N1CCN(c2ccccc2F)CC1,inactive: 1.08%,–
COc1ccc(N2CCN(C(=O)c3nn(C)c4c3CS(=O)(=O)c3ccccc3-4)CC2)cc1,inactive: -26.1%,–
C[C@H]1CCC[C@@]2(O[C@H](CCO)C[C@H](O)[C@H]2O)O1,inactive: -16.5%,–
COc1ccccc1/C=C/C=C1\Oc2c(ccc(O)c2CN2CCN(CCO)CC2)C1=O,–,active: 31.6 µM
COc1ccccc1C(=O)N/C(=C\c1ccc(Br)cc1)C(=O)N1CCCC1,inactive: 2.01%,–
